Data taken from the supplement of paper PMC4996465.
Viability of KB3-1 and Nalm-6 cells after 48 h of drug alone (CellTiter-Glo), 11 doses over about 4.5 log units. % of DMSO wells, lower = more cell loss; AC50 from the fitted curve, lower = more potent. No active / inactive call. Nalm-6 was screened in two runs. AC50 is listed only for well-fitted inhibitory curves. KB3-1 is a HeLa-derived carcinoma line, Nalm-6 a B-cell precursor leukaemia line.

Columns and labels:
KB3-1 [1] = assay: viability (% of DMSO control); higher = more viable cells
Description: (§1)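 Eleven-dose screen of the NCATS MIPE 3 library on cells without co-treatment; CellTiter-Glo after 48 h, as % of DMSO wells.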

Nalm-6 [2] = assay: as above
Description: as §1

KB3-1 [3] = assay: log AC50 of viability decrease (48 h) (log10 M); higher = less potent
Description: (§2)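 Eleven-dose screen of the NCATS MIPE 3 library on cells without co-treatment; CellTiter-Glo after 48 h. AC50 from the curve fit; only inhibitory curves of the better fit classes are listed.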

Nalm-6 [4] = assay: as above
Description: as §2

Row | SMILES | viability (KB3-1 [1]; 0.00078 µM) [%] | viability (KB3-1 [1]; 0.00234 µM) [%] | viability (KB3-1 [1]; 0.00702 µM) [%] | viability (KB3-1 [1]; 0.0211 µM) [%] | viability (KB3-1 [1]; 0.0632 µM) [%] | viability (KB3-1 [1]; 0.19 µM) [%] | viability (KB3-1 [1]; 0.569 µM) [%] | viability (KB3-1 [1]; 1.71 µM) [%] | viability (KB3-1 [1]; 5.12 µM) [%] | viability (KB3-1 [1]; 15.4 µM) [%] | viability (KB3-1 [1]; 46.1 µM) [%] | viability (Nalm-6 [2]; run: 1, 0.00078 µM) [%] | viability (Nalm-6 [2]; run: 1, 0.00234 µM) [%] | viability (Nalm-6 [2]; run: 1, 0.00702 µM) [%] | viability (Nalm-6 [2]; run: 1, 0.0211 µM) [%] | viability (Nalm-6 [2]; run: 1, 0.0632 µM) [%] | viability (Nalm-6 [2]; run: 1, 0.19 µM) [%] | viability (Nalm-6 [2]; run: 1, 0.569 µM) [%] | viability (Nalm-6 [2]; run: 1, 1.71 µM) [%] | viability (Nalm-6 [2]; run: 1, 5.12 µM) [%] | viability (Nalm-6 [2]; run: 1, 15.4 µM) [%] | viability (Nalm-6 [2]; run: 1, 46.1 µM) [%] | viability (Nalm-6 [2]; run: 2, 0.00078 µM) [%] | viability (Nalm-6 [2]; run: 2, 0.00234 µM) [%] | viability (Nalm-6 [2]; run: 2, 0.00702 µM) [%] | viability (Nalm-6 [2]; run: 2, 0.0211 µM) [%] | viability (Nalm-6 [2]; run: 2, 0.0632 µM) [%] | viability (Nalm-6 [2]; run: 2, 0.19 µM) [%] | viability (Nalm-6 [2]; run: 2, 0.569 µM) [%] | viability (Nalm-6 [2]; run: 2, 1.71 µM) [%] | viability (Nalm-6 [2]; run: 2, 5.12 µM) [%] | viability (Nalm-6 [2]; run: 2, 15.4 µM) [%] | viability (Nalm-6 [2]; run: 2, 46.1 µM) [%] | log AC50 of viability decrease (KB3-1 [3]) | log AC50 of viability decrease (Nalm-6 [4]; run: 1) | log AC50 of viability decrease (Nalm-6 [4]; run: 2)
1 | COC(=O)c1ccc2c(c1)NC(=O)/C2=C(\Nc1ccc(N(C)C(=O)CN2CCN(C)CC2)cc1)c1ccccc1 [Vargatef] | 101 | 103 | 106 | 99 | 87.9 | 86.7 | 64 | 39.7 | 33.3 | 34.6 | 1.59 | 101 | 96.5 | 112 | 116 | 110 | 80.6 | 31.4 | 7.95 | 4.85 | 3.8 | 1.18 | 99.5 | 104 | 100 | 103 | 96.1 | 58.2 | 17 | 5.2 | 4.29 | 3.82 | 1.1 | -5.93 | -6.48 | -6.68
2 | COC(=O)Nc1ccc(-c2nc(N3CCOCC3)c3cnn(C4CCN(C(=O)OC)CC4)c3n2)cc1 [WYE-354] | 95.2 | 100 | 101 | 90.2 | 81.4 | 71.1 | 59 | 47.2 | 45 | 45.1 | 40.9 | 99.9 | 102 | 106 | 98 | 92.9 | 93.7 | 93.4 | 78.8 | 65.1 | 60.9 | 6.49 | 105 | 106 | 103 | 109 | 108 | 103 | 91.9 | 90 | 68.2 | 72.8 | 3.97 | -6.73 | -4.73 | -4.78
3 | C=CC(=O)Nc1cccc(Oc2nc(Nc3ccc(N4CCN(C)CC4)cc3OC)ncc2Cl)c1 [WZ-4002] | 100 | 109 | 101 | 105 | 106 | 100 | 99.5 | 100 | 97.8 | 85.5 | 19.2 | 98.5 | 103 | 105 | 106 | 106 | 88.5 | 103 | 88 | 78.6 | 50 | -0.463 | 105 | 110 | 108 | 104 | 104 | 109 | 101 | 87.4 | 75.9 | 56.6 | 2.18 | -4.63 | -4.78 | -4.78
